In publication PMC12136788:
The other results are listed elsewhere or left out.

T1: UNK ZnF1-3 (human, UniProt Q9C0B0 31-174)
T1 sequence: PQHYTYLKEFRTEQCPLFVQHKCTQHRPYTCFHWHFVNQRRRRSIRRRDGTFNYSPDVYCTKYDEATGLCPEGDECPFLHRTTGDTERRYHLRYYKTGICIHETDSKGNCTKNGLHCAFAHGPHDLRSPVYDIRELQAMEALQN

B1: chrX:20248820:20248821:+_ENSMUSG00000001924_ENSMUST00000001989|mus_mus|mus_mus_mus_hu_True|48_48 (ssRNA)
RNA: GGGAGUUCUACAGUCCGACGAUCGGCGAAGUCCGUCACCACAAAGUCAGGUUCUGCCAGUGAGGCCACCAAGGAUUUAAAGCUAAUCUUUUUCGGUACUUUGACCUGACUGACGAUGCCUCCACGGAUGUAGUCGGAGAAGUUCAACAGAGGAUUGAGCAUCA
B2: 57307908_57312862_387_CDS_ENSG00000128050_ENST00000264221|human|control|control (ssRNA)
RNA: GGGAGUUCUACAGUCCGACGAUCACCUGCUUCCUGUAAUAACUGAAAAAUACAACUGGUGAUUUUAUUUGAGAUUGCAGCUUUUCCUUCCAGGUGGUUUUUUCUAGCUGCAUUUCCUGCUGUAAUCUGGUCCUUGGACUGCAGCAACAGAGGAUUGAGCAUCA
B3: chr3:9412954:9412955:+_ENSG00000134077_ENST00000452837|hu_mus|hu_hu_hu_mus_False|1_58 (ssRNA)
RNA: GGGAGUUCUACAGUCCGACGAUCGGUUGAUAUCUCUUCUUUGAUGGCUGGAUUUUCAUAAUAGUCCAAGAUAUGUGAAUCUAAAGCGCUGCUGGCAUGCUUUUUCUUACCAUCUUUCUCAUCUGCUUUGUCUCCUUGUCCAUUCAACAGAGGAUUGAGCAUCA
B4: 79658811_79658931_1260_3pUTR_ENSMUSG00000089715_ENSMUST00000109627|mouse|control|control (ssRNA)
RNA: GGGAGUUCUACAGUCCGACGAUCUGAGGGGCAGCCGGAAGAGCUGGAGCUGUGUGCGUCAAAGGGGGCAGCAGCUGGGGUGGCCAGGAGCAGCCCAGGCCCCGAGGAGGCCACAUCGGCUUUGCCCGCAGUAGAGGGCGCCAGCAACAGAGGAUUGAGCAUCA
B5: 118898749_118898869_788_3pUTR_ENSMUSG00000078584_ENSMUST00000141112|mouse|control|control (ssRNA)
RNA: GGGAGUUCUACAGUCCGACGAUCCCCACAGUUCUGUGACUCCUUACCAUCAAACUGAGAGCAAAACCAGCAGCUACAUCAUCAAGAUCAUCGUCCAAGUAGUUCAUAAUUCACCCAAAAACCCAUAGUCCCCCCUCACCCCCCCAACAGAGGAUUGAGCAUCA
B6: chrX:98878078:98878079:+_ENSMUSG00000034160_ENSMUST00000044475|mus_hu|FALSE|FALSE (ssRNA)
RNA: GGGAGUUCUACAGUCCGACGAUCACAUUUUAGCUUAAAACCUUAUCUCAAGAGAAUCAUAUACACUUCACAUGAAUAAAAAUACCUGAAACCAAACAUUUUUAAAAGCUCCAGUACCCAAAAUAUAAAGAAAAAAAAAUCCAGCAACAGAGGAUUGAGCAUCA
B7: chr7:151048522:151048523:+_ENSG00000013374_ENST00000566856|hu_mus|FALSE|FALSE (ssRNA)
RNA: GGGAGUUCUACAGUCCGACGAUCCUGUUUCUUAUUUAUUACGAUCUUGAUGUAAUUUUCUUGAAAUCCGAAAGUUUCAGCUAUUUGACACCUCAGGUCUCUACCAGUGACAUGCAAGCGGGUCUCCAACAAGCUUUUCUUAUCCAACAGAGGAUUGAGCAUCA
B8: chr3:176767854:176767855:-_ENSG00000177565_ENST00000430069|hu_hu|hu_hu_hu_mus_False|48_48 (ssRNA)
RNA: GGGAGUUCUACAGUCCGACGAUCGACAUCCUUGUUACUGGGCACGUCCUGCCCUCCUUCCCGUAUGCAGUGUCUAAGCACGAGCUGUGUAGAGCCACUCGUGCUGUUCUCACUGAGGUUCCAGAUUCUUGCCGUGGAGUCUCCCAACAGAGGAUUGAGCAUCA
B9: chr5:143665338:143665339:-_ENSMUSG00000029580_ENSMUST00000100497|mus_mus|FALSE|FALSE (ssRNA)
RNA: GGGAGUUCUACAGUCCGACGAUCUUUUUAAAUCCUGAGUCAAAAGCGCCAAAACAAAACAAAAAAACUUAAAAAAAAAAAAAAAAAAAAAAAAAAAAACUUUAAAAAAAAUUUAAAAAAACAAAGCCAUGCCAAUGUUGUCUCCAACAGAGGAUUGAGCAUCA
B10: chr2:104499440:104499441:+_ENSMUSG00000027176_ENSMUST00000028599|mus_hu|FALSE|FALSE (ssRNA)
RNA: GGGAGUUCUACAGUCCGACGAUCUUCUCCAGACUUCUCAGGAGGAAGGCUUCCAGAUGUUAAAACUCGUUCAAACAAAACUCGGGUAUUAUUGUCCUCAUUGAGGUGAGAAAGAUAGUCAAUAUAGGCCAGGACAUACUCUGGCAACAGAGGAUUGAGCAUCA
B11: chr7:149068622:149068623:-_ENSMUSG00000025139_ENSMUST00000001950|mus_hu|mus_mus_mus_hu_False|1_88 (ssRNA)
RNA: GGGAGUUCUACAGUCCGACGAUCGUGAGGCCUCUGAGUGUGGCUUGUGCUCUGCAGUGGGUUAGAGUUGUUAAUAUCACGGAACAUACCAUCUAGAACGUUCCAGUCCCGCCUGACACCUUCAUUCCCAAUGGAGAAUCUGCUCAACAGAGGAUUGAGCAUCA
B12: chr18:35833404:35833405:-_ENSMUSG00000024350_ENSMUST00000025208|mus_mus|motif|central (ssRNA)
RNA: GGGAGUUCUACAGUCCGACGAUCCCUAGACAUAUGACCUAGGCCGACCACUCAUCCUCUCUGGCCAAUUCAUAAAAGGGCGGACAUACCGGUUUCACAAACUGUUAUGAGGAAUAAGUGAAAAAACAAAAUAAAACAGAACACCAACAGAGGAUUGAGCAUCA
B13: 80942273_80942393_173_CDS_ENSG00000147586_ENST00000276585|human|control|control (ssRNA)
RNA: GGGAGUUCUACAGUCCGACGAUCCUGUAGGGGCUCCACCUUCUGUAGAAGCUCCGAGUGCCGCUCCAACGCGCUCGCGAAACCGCCUGCGCGCGUCUUAGGCUCCUUGGCAUUGGAACUACCACUUUCGGAUCCACUCUCAGUCAACAGAGGAUUGAGCAUCA
B14: chr1:60041781:60041782:+_ENSMUSG00000041040_ENSMUST00000036540|mus_hu|mus_mus_mus_hu_False|48_78 (ssRNA)
RNA: GGGAGUUCUACAGUCCGACGAUCAAGUUUACAAUAGUAAAGUAAAUGCAGUAGUGGAAUGGCAAGUUUUAUUUUCCUUCACAAAAGAAAACCUCAGUAACCCAGUCCUAGUCUUGGACAUAGUGAAAGCUAUAAAUUCUGACUCAACAGAGGAUUGAGCAUCA

Target: T1, UNK ZnF1-3
Assay: nsRBNS (natural sequence RNA bind-n-seq); RBNS binding buffer (assumed for nsRBNS): 25 mM Tris pH 7.5, 150 mM KCl, 3 mM MgCl2, 0.01% Triton X-100, 500 ug/ml BSA, 20 U/ml SUPERase-In, 4 C; UNK is unkempt and MSI1 is Musashi-1; names of the RNAs are library labels; protein concentration not given here; high values mean tight binding

Binder	binding signal [enrichment R]
B1	0.869
B2	0.599
B3	0.278
B4	1.26
B5	2.26
B6	2.84
B7	0.658
B8	0.436
B9	2.58
B10	1.3
B11	0.748
B12	1
B13	0.289
B14	0.706
